From the supplement of paper PMC12217912
This is one part of the list. The full chains were built here from the parent and the listed change. Values near 0.05 are background.

B1: TEV protease; numbered along this chain (parent)
chain: MGESLFKGPRDYNPISSSICHLTNESDGHTTSLYGIGFGPFIITNKHLFRRNNGTLVVQSLHGVFKVKDTTTLQQHLVDGRDMIIIRMPKDFPPFPQKLKFREPQREERICLVTTNFQTKSMSSMVSDTSCTFPSGDGIFWKHWIQTKDGQCGSPLVSTRDGFIVGIHSASNFTNTNNYFTSVPKNFMELLTNQEAQQWVSGWRLNADSVLWGGHKVFMVKPEEPFQPVKEATQL

Variants of: B1
Assay: raw area under fraction-flipped curve 0-4 h after induction (AUC4h, not background-subtracted), DNA-recorder readout of cleavage of the substrate (dimensionless); higher = more cleavage of the substrate by the protease variant
Details: temperature: 34 °C; time window: 0-4 h after rhamnose induction
Method: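 In vivo DNA recorder in E. coli TOP10(DE3) ΔrhaA at 34 °C. Each TEVp single-site mutant (parent TEVp 0) is paired with a single-site variant of the 7-mer TEVs (canonical ENLYFQ|S). The substrate sits between flexible linkers in a Bxb1-sfGFP-TEVs-SsrA fusion, so cleavage stabilises Bxb1 and speeds flipping of a recombination array, read by NGS. The value is the raw area under the fraction-flipped curve over 0-4 h after rhamnose induction (AUC4h), with ≥20 reads per time point. It is not background-subtracted; inactive controls average about 0.047.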
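Also: Bxb1 expression induced with 0.2% (w/v) L-rhamnose at OD600 near 0.5, cultures sampled hourly, flipped fraction per protease–substrate barcode pair counted by paired-end Illumina sequencing.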

Row | Variant | area with substrate ENLYFAS | area with substrate ENLYFKS | area with substrate ENLYFRS | area with substrate ENLYFVS | area with substrate ENLYFWS | area with substrate ENLYFCS | area with substrate ENLYFFS | area with substrate ENLYFGS | area with substrate ENLYFIS | area with substrate ENLYFMS | area with substrate ENLYFES | area with substrate ENLYFNS | area with substrate ENLYFSS | area with substrate ENLYFTS | area with substrate ENLYFPS | area with substrate ENLYFYS | area with substrate ENLYFHS | area with substrate ENLYFLS | area with substrate ENLYFDS
1 | MGESLFWGPRDYNPISSSICHLTNESDGHTTSLYGIGFGPFIITNKHLFRRNNGTLVVQSLHGVFKVKDTTTLQQHLVDGRDMIIIRMPKDFPPFPQKLKFREPQREERICLVTTNFQTKSMSSMVSDTSCTFPSGDGIFWKHWIQTKDGQCGSPLVSTRDGFIVGIHSASNFTNTNNYFTSVPKNFMELLTNQEAQQWVSGWRLNADSVLWGGHKVFMVKPEEPFQPVKEATQL [K7W] | 0.0508 | 0.0635 | 0.0521 | 0.06 | 0.0603 |  |  |  |  |  |  |  |  |  |  |  |  |  | 
2 | MGESLFHGPRDYNPISSSICHLTNESDGHTTSLYGIGFGPFIITNKHLFRRNNGTLVVQSLHGVFKVKDTTTLQQHLVDGRDMIIIRMPKDFPPFPQKLKFREPQREERICLVTTNFQTKSMSSMVSDTSCTFPSGDGIFWKHWIQTKDGQCGSPLVSTRDGFIVGIHSASNFTNTNNYFTSVPKNFMELLTNQEAQQWVSGWRLNADSVLWGGHKVFMVKPEEPFQPVKEATQL [K7H] | 0.0604 |  | 0.0542 |  |  | 0.0606 | 0.0674 | 0.0593 | 0.0573 | 0.0922 |  |  |  |  |  |  |  |  | 
3 | MGESLFVGPRDYNPISSSICHLTNESDGHTTSLYGIGFGPFIITNKHLFRRNNGTLVVQSLHGVFKVKDTTTLQQHLVDGRDMIIIRMPKDFPPFPQKLKFREPQREERICLVTTNFQTKSMSSMVSDTSCTFPSGDGIFWKHWIQTKDGQCGSPLVSTRDGFIVGIHSASNFTNTNNYFTSVPKNFMELLTNQEAQQWVSGWRLNADSVLWGGHKVFMVKPEEPFQPVKEATQL [K7V] | 0.0402 |  | 0.0628 |  | 0.0616 | 0.0565 | 0.0621 |  | 0.0613 |  | 0.0818 | 0.0587 | 0.0598 | 0.0599 |  |  |  |  | 
4 | MGESHFKGPRDYNPISSSICHLTNESDGHTTSLYGIGFGPFIITNKHLFRRNNGTLVVQSLHGVFKVKDTTTLQQHLVDGRDMIIIRMPKDFPPFPQKLKFREPQREERICLVTTNFQTKSMSSMVSDTSCTFPSGDGIFWKHWIQTKDGQCGSPLVSTRDGFIVGIHSASNFTNTNNYFTSVPKNFMELLTNQEAQQWVSGWRLNADSVLWGGHKVFMVKPEEPFQPVKEATQL [L5H] | 0.0722 | 0.072 |  |  | 0.0479 |  | 0.0769 |  | 0.0642 | 0.0618 | 0.0442 |  | 0.0656 |  | 0.0614 |  |  |  | 
5 | MGESLFKGPRDYNPISSSICHLTNESEGHTTSLYGIGFGPFIITNKHLFRRNNGTLVVQSLHGVFKVKDTTTLQQHLVDGRDMIIIRMPKDFPPFPQKLKFREPQREERICLVTTNFQTKSMSSMVSDTSCTFPSGDGIFWKHWIQTKDGQCGSPLVSTRDGFIVGIHSASNFTNTNNYFTSVPKNFMELLTNQEAQQWVSGWRLNADSVLWGGHKVFMVKPEEPFQPVKEATQL [D27E] | 0.0772 | 0.0475 | 0.0715 |  |  | 0.0491 |  |  | 0.0573 |  | 0.0669 |  | 0.0673 | 0.0315 | 0.0427 | 0.0549 |  |  | 
6 | MGVSLFKGPRDYNPISSSICHLTNESDGHTTSLYGIGFGPFIITNKHLFRRNNGTLVVQSLHGVFKVKDTTTLQQHLVDGRDMIIIRMPKDFPPFPQKLKFREPQREERICLVTTNFQTKSMSSMVSDTSCTFPSGDGIFWKHWIQTKDGQCGSPLVSTRDGFIVGIHSASNFTNTNNYFTSVPKNFMELLTNQEAQQWVSGWRLNADSVLWGGHKVFMVKPEEPFQPVKEATQL [E3V] | 0.0275 | 0.0675 |  | 0.0653 | 0.0344 |  | 0.0572 | 0.0581 | 0.0824 |  | 0.0703 |  | 0.0666 | 0.0642 |  | 0.061 | 0.0797 | 0.053 | 
7 | MGWSLFKGPRDYNPISSSICHLTNESDGHTTSLYGIGFGPFIITNKHLFRRNNGTLVVQSLHGVFKVKDTTTLQQHLVDGRDMIIIRMPKDFPPFPQKLKFREPQREERICLVTTNFQTKSMSSMVSDTSCTFPSGDGIFWKHWIQTKDGQCGSPLVSTRDGFIVGIHSASNFTNTNNYFTSVPKNFMELLTNQEAQQWVSGWRLNADSVLWGGHKVFMVKPEEPFQPVKEATQL [E3W] | 0.0576 | 0.0645 |  |  | 0.0519 |  | 0.0692 |  | 0.0555 |  | 0.0733 |  | 0.0443 |  | 0.0809 | 0.0562 | 0.0691 |  | 
8 | MGESLFKGPRDYNPISSSICHLTNESDGGTTSLYGIGFGPFIITNKHLFRRNNGTLVVQSLHGVFKVKDTTTLQQHLVDGRDMIIIRMPKDFPPFPQKLKFREPQREERICLVTTNFQTKSMSSMVSDTSCTFPSGDGIFWKHWIQTKDGQCGSPLVSTRDGFIVGIHSASNFTNTNNYFTSVPKNFMELLTNQEAQQWVSGWRLNADSVLWGGHKVFMVKPEEPFQPVKEATQL [H29G] | 0.0603 |  |  |  |  |  |  |  | 0.0679 | 0.0623 |  |  |  | 0.0824 | 0.0596 | 0.0598 |  |  | 
9 | MGESLFKGPRDYNPISSSICHLTNESDGHDTSLYGIGFGPFIITNKHLFRRNNGTLVVQSLHGVFKVKDTTTLQQHLVDGRDMIIIRMPKDFPPFPQKLKFREPQREERICLVTTNFQTKSMSSMVSDTSCTFPSGDGIFWKHWIQTKDGQCGSPLVSTRDGFIVGIHSASNFTNTNNYFTSVPKNFMELLTNQEAQQWVSGWRLNADSVLWGGHKVFMVKPEEPFQPVKEATQL [T30D] | 0.0865 | 0.0407 | 0.0644 |  |  | 0.0545 | 0.0627 |  |  | 0.0743 | 0.054 |  |  | 0.0602 | 0.0493 |  | 0.0562 |  | 
10 | MGESLFKGPRDYNPISSSICHMTNESDGHTTSLYGIGFGPFIITNKHLFRRNNGTLVVQSLHGVFKVKDTTTLQQHLVDGRDMIIIRMPKDFPPFPQKLKFREPQREERICLVTTNFQTKSMSSMVSDTSCTFPSGDGIFWKHWIQTKDGQCGSPLVSTRDGFIVGIHSASNFTNTNNYFTSVPKNFMELLTNQEAQQWVSGWRLNADSVLWGGHKVFMVKPEEPFQPVKEATQL [L22M] | 0.0318 | 0.0626 |  | 0.0502 | 0.0624 | 0.0615 | 0.0338 |  | 0.0543 | 0.0653 | 0.0712 | 0.0694 | 0.0559 | 0.0436 | 0.0545 |  | 0.0554 |  | 0.0544
